# Results reported in the supplement of paper PMC8728848.
# This is one part of the list.
# B1: Pwp5 ND (Candida glabrata) (protein)
# chain: MGSSHHHHHHSSGLVPRGSHMASANPVPLTNVCYFPEEYPRQAGFRAITAGLASTILQGSVDELLNYSGLSSLTTQQTTTTTPNFQLPTLPLPTNVYGLTVVPLYLLVQLQGYFVPPVSGQYTFSLENTNDAAIIFFGNPSAFPCGDLSAWPQASADDITVTDGTFPSRTLFLKAGVAYPMRISYYNSLGSGNLAVSFTDPGGTKRTNWNGYIWRYNSCSTCTYT
# Legend:
# Assay in all cases: glycan array binding signal (z-score within array); higher = stronger binding
# Conditions in all cases: glycan notation: IUPAC condensed, linker removed
# [1] = molecular target: Gal(b1-4)GlcNAc(b1-2)Man(a1-6)[Man(a1-3)]Man(b1-4)GlcNAc(b1-4)GlcNAc
# How it was run: (§1)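 Glycan array data came from 3228 arrays in the Consortium for Functional Glycomics database, and only arrays with an available protein sequence were kept. Glycan names were put into IUPAC-condensed notation, and columns mapping to the same glycan were averaged. The binding signal is a within-array Z-score, averaged across arrays of one protein sequence run at different concentrations or buffers and across linkers. A negative Z-score can be read as non-binding.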
# [2] = molecular target: Gal(b1-4)GlcNAc(b1-2)[Gal(b1-4)GlcNAc(b1-4)]Man(a1-3)[Gal(b1-4)GlcNAc(b1-2)Man(a1-6)]Man(b1-4)GlcNAc(b1-4)GlcNAc
# How it was run: as §1
# [3] = molecular target: Gal(b1-4)GlcNAc(b1-2)[Gal(b1-4)GlcNAc(b1-4)]Man(a1-3)[Gal(b1-4)GlcNAc(b1-2)[Gal(b1-4)GlcNAc(b1-6)]Man(a1-6)]Man(b1-4)GlcNAc(b1-4)GlcNAc
# How it was run: as §1
# [4] = molecular target: Gal(b1-4)GlcNAc(b1-2)[Gal(b1-4)GlcNAc(b1-4)]Man(a1-3)[GlcNAc(b1-4)][Gal(b1-4)GlcNAc(b1-2)Man(a1-6)]Man(b1-4)GlcNAc(b1-4)GlcNAc
# How it was run: as §1
# [5] = molecular target: Gal(b1-4)GlcNAc(b1-2)[Gal(b1-4)GlcNAc(b1-4)]Man(a1-3)[GlcNAc(b1-4)][Gal(b1-4)GlcNAc(b1-2)[Gal(b1-4)GlcNAc(b1-6)]Man(a1-6)]Man(b1-4)GlcNAc(b1-4)GlcNAc
# How it was run: as §1
# [6] = molecular target: Gal(b1-4)GlcNAc(b1-2)[Gal(b1-4)GlcNAc(b1-6)]Man(a1-6)[Gal(b1-4)GlcNAc(b1-2)Man(a1-3)]Man(b1-4)GlcNAc(b1-4)GlcNAc
# How it was run: as §1
# [7] = molecular target: Gal(b1-4)GlcNAc(b1-2)[Gal(b1-4)GlcNAc(b1-6)]Man(a1-6)[Gal(b1-4)GlcNAc(b1-2)Man(a1-3)]Man(b1-4)GlcNAc(b1-4)[Fuc(a1-6)]GlcNAc
# How it was run: as §1
# [8] = molecular target: Gal(b1-4)GlcNAc(b1-2)[Gal(b1-4)GlcNAc(b1-6)]Man(a1-6)[GlcNAc(b1-4)][Gal(b1-4)GlcNAc(b1-2)Man(a1-3)]Man(b1-4)GlcNAc(b1-4)GlcNAc
# How it was run: as §1
# [9] = molecular target: Gal(b1-4)GlcNAc(b1-2)[Gal(b1-4)GlcNAc(b1-6)]Man(a1-6)[GlcNAc(b1-4)][Gal(b1-4)GlcNAc(b1-2)[Gal(b1-4)GlcNAc(b1-4)]Man(a1-3)]Man(b1-4)GlcNAc(b1-4)[Fuc(a1-6)]GlcNAc
# How it was run: as §1
# [10] = molecular target: Gal(b1-4)GlcNAc(b1-3)Gal(b1-3)GalNAc
# How it was run: as §1
# [11] = molecular target: Gal(b1-4)GlcNAc(b1-3)Gal(b1-3)GlcNAc
# How it was run: as §1
# [12] = molecular target: Gal(b1-4)GlcNAc(b1-3)Gal(b1-4)Glc
# How it was run: as §1
# [13] = molecular target: Gal(b1-4)GlcNAc(b1-3)Gal(b1-4)GlcNAc
# How it was run: as §1
# [14] = molecular target: Gal(b1-4)GlcNAc(b1-3)Gal(b1-4)GlcNAc(b1-2)Man(a1-3)[Gal(b1-4)GlcNAc(b1-3)Gal(b1-4)GlcNAc(b1-2)Man(a1-6)]Man(b1-4)GlcNAc(b1-4)GlcNAc
# How it was run: as §1
# [15] = molecular target: Gal(b1-4)GlcNAc(b1-3)Gal(b1-4)GlcNAc(b1-2)Man(a1-3)[Gal(b1-4)GlcNAc(b1-3)Gal(b1-4)GlcNAc(b1-2)Man(a1-6)]Man(b1-4)GlcNAc(b1-4)[Fuc(a1-6)]GlcNAc
# How it was run: as §1
# [16] = molecular target: Gal(b1-4)GlcNAc(b1-3)Gal(b1-4)GlcNAc(b1-2)[Gal(b1-4)GlcNAc(b1-3)Gal(b1-4)GlcNAc(b1-6)]Man(a1-6)[Gal(b1-4)GlcNAc(b1-3)Gal(b1-4)GlcNAc(b1-2)Man(a1-3)]Man(b1-4)GlcNAc(b1-4)GlcNAc
# How it was run: as §1
# [17] = molecular target: Gal(b1-4)GlcNAc(b1-3)Gal(b1-4)GlcNAc(b1-2)[Gal(b1-4)GlcNAc(b1-3)Gal(b1-4)GlcNAc(b1-6)]Man(a1-6)[Gal(b1-4)GlcNAc(b1-3)Gal(b1-4)GlcNAc(b1-2)Man(a1-3)]Man(b1-4)GlcNAc(b1-4)[Fuc(a1-6)]GlcNAc
# How it was run: as §1
# [18] = molecular target: Gal(b1-4)GlcNAc(b1-3)Gal(b1-4)GlcNAc(b1-3)Gal(b1-4)GlcNAc
# How it was run: as §1
# [19] = molecular target: Gal(b1-4)GlcNAc(b1-3)Gal(b1-4)GlcNAc(b1-3)Gal(b1-4)GlcNAc(b1-2)Man(a1-3)[Gal(b1-4)GlcNAc(b1-3)Gal(b1-4)GlcNAc(b1-3)Gal(b1-4)GlcNAc(b1-2)Man(a1-6)]Man(b1-4)GlcNAc(b1-4)GlcNAc
# How it was run: as §1
# [20] = molecular target: Gal(b1-4)GlcNAc(b1-3)Gal(b1-4)GlcNAc(b1-3)Gal(b1-4)GlcNAc(b1-2)Man(a1-3)[Gal(b1-4)GlcNAc(b1-3)Gal(b1-4)GlcNAc(b1-3)Gal(b1-4)GlcNAc(b1-2)Man(a1-6)]Man(b1-4)GlcNAc(b1-4)[Fuc(a1-6)]GlcNAc
# How it was run: as §1
# [21] = molecular target: Gal(b1-4)GlcNAc(b1-3)Gal(b1-4)GlcNAc(b1-3)Gal(b1-4)GlcNAc(b1-2)[Gal(b1-4)GlcNAc(b1-3)Gal(b1-4)GlcNAc(b1-3)Gal(b1-4)GlcNAc(b1-6)]Man(a1-6)[Gal(b1-4)GlcNAc(b1-3)Gal(b1-4)GlcNAc(b1-3)Gal(b1-4)GlcNAc(b1-2)Man(a1-3)]Man(b1-4)GlcNAc(b1-4)[Fuc(a1-6)]GlcNAc
# How it was run: as §1
# [22] = molecular target: Gal(b1-4)GlcNAc(b1-3)Gal(b1-4)GlcNAc(b1-3)Gal(b1-4)GlcNAc(b1-3)Gal(b1-4)GlcNAc(b1-2)Man(a1-3)[Gal(b1-4)GlcNAc(b1-3)Gal(b1-4)GlcNAc(b1-3)Gal(b1-4)GlcNAc(b1-3)Gal(b1-4)GlcNAc(b1-2)Man(a1-6)]Man(b1-4)GlcNAc(b1-4)GlcNAc
# How it was run: as §1
binder,measurement,setting,value
B1,glycan array binding signal (z-score),[1],0.111
same,glycan array binding signal (z-score),[2],-0.291
same,glycan array binding signal (z-score),[3],-0.544
same,glycan array binding signal (z-score),[4],-0.511
same,glycan array binding signal (z-score),[5],-0.587
same,glycan array binding signal (z-score),[6],-0.375
same,glycan array binding signal (z-score),[7],-0.233
same,glycan array binding signal (z-score),[8],-0.402
same,glycan array binding signal (z-score),[9],-0.327
same,glycan array binding signal (z-score),[10],-0.402
same,glycan array binding signal (z-score),[11],-0.302
same,glycan array binding signal (z-score),[12],-0.486
same,glycan array binding signal (z-score),[13],-0.685
same,glycan array binding signal (z-score),[14],0.832
same,glycan array binding signal (z-score),[15],0.068
same,glycan array binding signal (z-score),[16],1.03
same,glycan array binding signal (z-score),[17],0.419
same,glycan array binding signal (z-score),[18],-0.555
same,glycan array binding signal (z-score),[19],0.12
same,glycan array binding signal (z-score),[20],3.19
same,glycan array binding signal (z-score),[21],-0.277
same,glycan array binding signal (z-score),[22],-0.295
